# This is one part of the list.
# Assays:
# Assay in all cases: glycan array binding signal (z-score within array); higher = stronger binding
# Conditions in all cases: glycan notation: IUPAC condensed, linker removed
# [1] = molecular target: Fuc(a1-3)GlcNAc
# In short: (§1)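 From the Consortium for Functional Glycomics database, 3228 arrays were curated, keeping only those whose protein sequence was available. Binding is given as a within-array Z-score averaged across arrays sharing a protein sequence and across linkers. Negative Z-scores can be read as non-binding.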
# [2] = molecular target: Fuc(a1-3)[Gal(b1-4)]Glc6S
# In short: as §1
# [3] = molecular target: Fuc(a1-3)[Gal(b1-4)]GlcNAc
# In short: as §1
# [4] = molecular target: Fuc(a1-3)[Gal(b1-4)]GlcNAc(b1-2)Man
# In short: as §1
# [5] = molecular target: Fuc(a1-3)[Gal(b1-4)]GlcNAc(b1-2)Man(a1-3)[Fuc(a1-3)[Gal(b1-4)]GlcNAc(b1-2)Man(a1-6)]Man(b1-4)GlcNAc(b1-4)GlcNAc
# In short: as §1
# [6] = molecular target: Fuc(a1-3)[Gal(b1-4)]GlcNAc(b1-2)Man(a1-3)[Fuc(a1-3)[Gal(b1-4)]GlcNAc(b1-2)Man(a1-6)]Man(b1-4)GlcNAc(b1-4)[Fuc(a1-6)]GlcNAc
# In short: as §1
# [7] = molecular target: Fuc(a1-3)[Gal(b1-4)]GlcNAc(b1-3)Gal(b1-3)[Fuc(a1-4)]GlcNAc
# In short: as §1
# [8] = molecular target: Fuc(a1-3)[Gal(b1-4)]GlcNAc(b1-3)Gal(b1-4)[Fuc(a1-3)]GlcNAc
# In short: as §1
# [9] = molecular target: Fuc(a1-3)[Gal(b1-4)]GlcNAc(b1-3)Gal(b1-4)[Fuc(a1-3)]GlcNAc(b1-3)Gal(b1-4)[Fuc(a1-3)]GlcNAc
# In short: as §1
# [10] = molecular target: Fuc(a1-3)[Gal(b1-4)]GlcNAc(b1-3)GalNAc
# In short: as §1
# [11] = molecular target: Fuc(a1-3)[Gal(b1-4)]GlcNAc(b1-6)GalNAc
# In short: as §1
# [12] = molecular target: Fuc(a1-3)[Gal(b1-4)]GlcNAc(b1-6)[Gal(b1-3)GlcNAc(b1-3)]Gal(b1-4)Glc
# In short: as §1
# [13] = molecular target: Fuc(a1-3)[Gal(b1-4)]GlcNAc6S
# In short: as §1
# [14] = molecular target: Fuc(a1-3)[Gal3S(b1-4)]Glc
# In short: as §1
# [15] = molecular target: Fuc(a1-3)[Gal3S(b1-4)]GlcNAc
# In short: as §1
# [16] = molecular target: Fuc(a1-3)[Gal3S(b1-4)]GlcNAc6S
# In short: as §1
# [17] = molecular target: Fuc(a1-3)[GalNAc(b1-4)]GlcNAc
# In short: as §1
# [18] = molecular target: Fuc(a1-3)[GalNAc(b1-4)]GlcNAc6S
# In short: as §1
# [19] = molecular target: Fuc(a1-4)GlcNAc
# In short: as §1
# [20] = molecular target: Fuc(b1-3)GlcNAc
# In short: as §1
# [21] = molecular target: Gal(a1-2)Gal
# In short: as §1
# [22] = molecular target: Gal(a1-3)Gal
# In short: as §1
# [23] = molecular target: Gal(a1-3)Gal(b1-3)GlcNAc
# In short: as §1
# [24] = molecular target: Gal(a1-3)Gal(b1-3)GlcNAc(b1-2)Man
# In short: as §1
# [25] = molecular target: Gal(a1-3)Gal(b1-3)GlcNAc(b1-2)Man(a1-3)[Gal(a1-3)Gal(b1-3)GlcNAc(b1-2)Man(a1-6)]Man(b1-4)GlcNAc(b1-4)GlcNAc
# In short: as §1
# [26] = molecular target: Gal(a1-3)Gal(b1-3)GlcNAc(b1-3)GalNAc
# In short: as §1
# [27] = molecular target: Gal(a1-3)Gal(b1-3)GlcNAc(b1-6)GalNAc
# In short: as §1
# [28] = molecular target: Gal(a1-3)Gal(b1-3)[Fuc(a1-4)]GlcNAc(b1-2)Man(a1-3)[Gal(a1-3)Gal(b1-3)[Fuc(a1-4)]GlcNAc(b1-2)Man(a1-6)]Man(b1-4)GlcNAc(b1-4)GlcNAc
# In short: as §1
# [29] = molecular target: Gal(a1-3)Gal(b1-4)Glc
# In short: as §1
# [30] = molecular target: Gal(a1-3)Gal(b1-4)GlcNAc
# In short: as §1
# [31] = molecular target: Gal(a1-3)Gal(b1-4)GlcNAc(b1-2)Man
# In short: as §1
# [32] = molecular target: Gal(a1-3)Gal(b1-4)GlcNAc(b1-2)Man(a1-3)[Gal(a1-3)Gal(b1-4)GlcNAc(b1-2)Man(a1-6)]Man(b1-4)GlcNAc(b1-4)GlcNAc
# In short: as §1
# [33] = molecular target: Gal(a1-3)Gal(b1-4)GlcNAc(b1-3)GalNAc
# In short: as §1
# [34] = molecular target: Gal(a1-3)Gal(b1-4)GlcNAc(b1-6)GalNAc
# In short: as §1
# [35] = molecular target: Gal(a1-3)Gal(b1-4)[Fuc(a1-3)]GlcNAc
# In short: as §1
# [36] = molecular target: Gal(a1-3)Gal(b1-4)[Fuc(a1-3)]GlcNAc(b1-2)Man(a1-3)[Gal(a1-3)Gal(b1-4)[Fuc(a1-3)]GlcNAc(b1-2)Man(a1-6)]Man(b1-4)GlcNAc(b1-4)GlcNAc
# In short: as §1
# [37] = molecular target: Gal(a1-3)GalNAc
# In short: as §1
binder,measurement,setting,value
SP8524D-bot-399-27-399 (Bacteroides ovatus) (protein) DAKYDTLDTHAYIEEALSSTSQKVTVQATGESFTTLNVHLSNLSSTDNHYKLVTDQSVLDTYNHINGTGYIMLPKDYYTLPETITVKAGQYAADALSIALKAFSQEMMKSGESYALPVKLVLQDGSISPMENTGTFVILAESIIEFSAPMFVGAPSLKANKFTESPETYSQYTIEVRFQVANTADRDRAVFKNGGDDANFILLRFEDPQSDNENYKAHSLVQIVGRNRLYLNPSNSFKPNEWQHLALVCDGSNYRLYINGVDSGVLSIPTGATTFSDVNWFCLGDDSYSRWGNCKILMSEARIWSVVRSASQIQNNMTQVSPKSVGLEAYWRFNEGQGNVFEDATGKGHTLTTSATPTWIDGILSTDKSTEWK,glycan array binding signal (z-score),[1],0.311
same,glycan array binding signal (z-score),[2],-0.514
same,glycan array binding signal (z-score),[3],-0.28
same,glycan array binding signal (z-score),[4],0.413
same,glycan array binding signal (z-score),[5],-0.568
same,glycan array binding signal (z-score),[6],-0.313
same,glycan array binding signal (z-score),[7],-0.267
same,glycan array binding signal (z-score),[8],-0.486
same,glycan array binding signal (z-score),[9],0.228
same,glycan array binding signal (z-score),[10],-0.197
same,glycan array binding signal (z-score),[11],0.306
same,glycan array binding signal (z-score),[12],-0.326
same,glycan array binding signal (z-score),[13],-0.038
same,glycan array binding signal (z-score),[14],-0.356
same,glycan array binding signal (z-score),[15],0.675
same,glycan array binding signal (z-score),[16],0.012
same,glycan array binding signal (z-score),[17],1.02
same,glycan array binding signal (z-score),[18],-0.001
same,glycan array binding signal (z-score),[19],6.02
same,glycan array binding signal (z-score),[20],-0.083
same,glycan array binding signal (z-score),[21],-0.243
same,glycan array binding signal (z-score),[22],0.103
same,glycan array binding signal (z-score),[23],-0.411
same,glycan array binding signal (z-score),[24],-0.197
same,glycan array binding signal (z-score),[25],-0.354
same,glycan array binding signal (z-score),[26],-0.204
same,glycan array binding signal (z-score),[27],0.005
same,glycan array binding signal (z-score),[28],-0.187
same,glycan array binding signal (z-score),[29],-0.416
same,glycan array binding signal (z-score),[30],-0.463
same,glycan array binding signal (z-score),[31],-0.453
same,glycan array binding signal (z-score),[32],0.063
same,glycan array binding signal (z-score),[33],-0.022
same,glycan array binding signal (z-score),[34],-0.05
same,glycan array binding signal (z-score),[35],-0.568
same,glycan array binding signal (z-score),[36],0.533
same,glycan array binding signal (z-score),[37],-0.059

# From the supplement of paper PMC8728848
